According to PubChem BioAssay AID662 (National Center for Advancing Translational Sciences (NCATS), 2007):
The whole screen tested about 71,000 compounds, of which about 1,800 (2.5%) were called active. Inconclusive results, whose numbers are uncertain, are shown with a selection of clear calls. Calls follow the shape of the dose curve; as a rule, active = well fitted activation curve with a large enough effect in the signal ratio, with a control signal flat (not every such curve was filed as active); inconclusive = small, poorly fitted or top-dose-only effect, or effect the other way, or a change in a side signal; inactive = flat fitted curve, though single readings scatter; the % refers to the signal ratio. A potency beside an inconclusive call is a rough fit, not a confirmed value.
Potency is read from the fitted curve at half-maximal effect; tags tell the direction and shape of the fitted curve.

Assay: Cell signaling CRE-BLA (Fsk stim); as to activity change, negative = inhibition: % of control where 0% means no effect
Details: CHO CRE-bla reporter (cAMP response element driving beta-lactamase), forskolin EC10, beta-lactamase ratio; activity change, negative = inhibition: at 38.2 µM (top of the series) unless noted
How it was run: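 qHTS titration format; CRE-bla CHO reporter; stimulus EC10 NKH 477, a water-soluble forskolin. Read: CCF4 460/530 nm ratio. Potency expressed as AC50 for activators or inhibitors.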
In the case of c1ccc(CCCc2nc(-c3ccccn3)no2)cc1, the activity change, negative = inhibition is reported as “inactive”.
With CN(Cc1ccco1)c1nc(-c2cccc(C#N)c2)nc2ccccc12 the activity change, negative = inhibition was inconclusive: 28.4%.
In the case of Nc1nnc(SCC(=O)Nc2ccc(F)c(Cl)c2)n1-c1ccccc1, the activity change, negative = inhibition is reported as “inactive”.
For c1ccc(-n2nnnc2NCCc2c[nH]c3ccccc23)cc1, the activity change, negative = inhibition was inconclusive: -19.4%.
For COCCn1c(=O)c(-c2cn(C)c3ccccc23)nc2cnc(OCc3ccccc3)nc21, the Potency was inconclusive: 12.6 µM [rising, partial curve].
For CCCC(=O)Nc1nc2ccc(S(N)(=O)=O)cc2s1, the Potency was inconclusive: 12.6 µM [rising, single point].
With CCOc1ccccc1N(CC(=O)Nc1ccc(C)cc1)S(C)(=O)=O the Potency was inconclusive: 0.0631 µM [falling, full curve, poor fit].
With C/C(N)=C(/C#N)C(=O)COc1ncnc2ccc(Br)cc12 the activity change, negative = inhibition was inconclusive: -25.6%.
With COCCn1c(=O)[nH]c2cc(C(=O)NCCCN3CCN(c4ccc(F)cc4)CC3)ccc2c1=O the activity change, negative = inhibition was “inactive”.
For COc1ccccc1NC(=O)N1CCc2[nH]c3ccc(Cl)cc3c2C1, the activity change, negative = inhibition was “inactive”.
For CCc1nc(Nc2ccc3nccnc3c2)c2oc3ccccc3c2n1, the Potency was active: 0.794 µM.
For Cc1cc(C)nc(SCC(=O)Nc2ncc3c(n2)CC(C)(C)CC3=O)n1, the activity change, negative = inhibition was inconclusive: -0.618%.
With O=C(CSc1nnc2scc(-c3ccccc3)n12)NCc1ccc2c(c1)OCO2 the Potency was inconclusive: 10 µM [rising, single point].
In the case of CC(C)(C)[Si](C)(C)c1c2c(nc3ccc(OCc4ccccc4)cc13)-c1cccc(=O)n1C2, the Potency is reported as active: 7.94 µM.
In the case of Cc1nc2c(c(C)nn2-c2ccccc2)c(C)c1Cl, the activity change, negative = inhibition is reported as “inactive”.
With O=C(Cn1nnc(-c2ccccc2)n1)OCc1csc(-c2ccccc2)n1 the Potency was inconclusive: 2.51 µM [falling, single point].
In the case of Cc1ccc2cc3cc(C(=O)NCc4ccc5c(c4)OCO5)oc3nc2c1, the activity change, negative = inhibition is reported as inconclusive: 15.3%.
In the case of CCOC(=O)CNC(=O)c1cn(CC)c(=O)c2cc(OC)c(OC)cc12, the Potency is reported as active: 5.01 µM.
With CS(=O)c1ccc(-c2nc(-c3ccc(F)cc3)c(-c3ccncc3)[nH]2)cc1 (stereo not drawn) the Potency was inconclusive: 31.6 µM [rising, single point].
In the case of COCCn1c(=O)c(-c2ccc(F)cc2)nc2cncnc21, the activity change, negative = inhibition is reported as inconclusive: 16.8%.
With CCOc1ccc(NC(=O)c2nnn(CC(=O)Nc3ccccc3OC)c2N)cc1 the activity change, negative = inhibition was inconclusive: -0.151%.
For O=C(CSc1nc(Nc2ccccc2)nc(N2CCOCC2)n1)N1CCCC1, the Potency was inconclusive: 12.6 µM [rising, single point].
With CSC1=C(C#N)C(c2ccc(Cl)cc2)C2=C(CC(C)(C)CC2=O)N1 (stereo not drawn) the activity change, negative = inhibition was inconclusive: 25.3% [at 7.6 µM].
For O=C(NC1CCCC1)C(c1ccccc1)N(C(=O)c1ccno1)c1cccnc1 (stereo not drawn), the Potency was inconclusive: 15.8 µM [rising, single point].
In the case of O=C1c2ccccc2C(=O)N1CCCc1nc(-c2ccc(Cl)cc2)no1, the activity change, negative = inhibition is reported as “inactive”.
For O=C(O)CCC(=O)N1CCc2cc(S(=O)(=O)N3CC=C(c4ccccc4)CC3)ccc21, the activity change, negative = inhibition was “inactive”.
In the case of Cn1c(=O)cc(SCC(=O)NCc2cccnc2)c2ccccc21, the activity change, negative = inhibition is reported as inconclusive: 24.1%.
With O=C(NCCc1nc2ccccc2[nH]1)c1ccc(F)cc1 the activity change, negative = inhibition was inconclusive: -18.6%.
In the case of CCN1CCN(C(CNC(=O)c2ccc3c(c2)OCO3)c2cccnc2)CC1 (stereo not drawn), the Potency is reported as active: 12.6 µM.
In the case of Cc1cc2cc(CN(CCCO)S(=O)(=O)c3cccc4nsnc34)c(=O)[nH]c2cc1C, the Potency is reported as inconclusive: 25.1 µM [rising, single point].
In the case of CN(C)CCSc1nc(N)c2c3c(sc2n1)COC(C)(C)C3, the Potency is reported as inconclusive: 5.01 µM [rising, partial curve].
For COCCn1c(CN2CCN(c3ccc(OC)cc3)CC2)nc2c1c(=O)n(C)c(=O)n2C, the Potency was inconclusive: 25.1 µM [rising, single point].
With COc1cccc(C(=O)Nc2c3c(nn2-c2ccccc2C)CS(=O)C3)c1OC (stereo not drawn) the Potency was inconclusive: 10 µM [rising, partial curve].
In the case of Cc1nc2c(C)cccn2c1/C(O)=C1\C(=O)C(=O)N(CCN2CCOCC2)C1c1ccncc1 (stereo not drawn), the activity change, negative = inhibition is reported as “inactive”.
In the case of Cc1cc(C)c2c(SCc3ccc(Cl)cc3Cl)nc(N)nc2n1, the activity change, negative = inhibition is reported as inactive: 8.63% [at 7.6 µM].
In the case of CN(C)C(=O)c1ccc(-c2nc(N(C)C)c3ccccc3n2)cc1, the Potency is reported as active: 7.94 µM.
For CSc1nc2c(c(=O)n1C)SC(C)C2 (stereo not drawn), the Potency was inconclusive: 15.8 µM [rising, single point].
With Cn1cc(-c2nc3cnc(Oc4ccccc4)nc3n(Cc3cccs3)c2=O)c2ccccc21 the Potency was inconclusive: 0.398 µM [rising, partial curve].
For Cc1cc(NC(=O)COc2ccc3oc4ccccc4c3c2)no1, the Potency was inconclusive: 2.51 µM [falling, single point].
In the case of CCOC(=O)C(NC(=O)CC)(Nc1sc2c(c1C(=O)OC)CCN(C)C2)C(F)(F)F (stereo not drawn), the activity change, negative = inhibition is reported as inconclusive: 5.54%.
In the case of Cc1cc2nc(-c3ccco3)cc(C(F)(F)F)n2n1, the Potency is reported as inconclusive: 10 µM [rising, partial curve].
With COc1cc(-c2nnc(CSc3nc4ccccc4s3)o2)cc(OC)c1OC the Potency was inconclusive: 2.51 µM [rising, partial curve].
With Nc1c(C(=O)NCCN2CCOCC2)c2nc3ccccc3nc2n1CCc1ccccc1 the Potency was inconclusive: 10 µM [rising, partial curve].
For O=c1c2ccccc2[nH]c(=S)n1C1CCCCC1, the activity change, negative = inhibition was inconclusive: -13.6%.
For COc1cccc(C2=NOC(C(=O)Nc3ccc(OC)c(OC)c3)C2)c1 (stereo not drawn), the Potency was inconclusive: 25.1 µM [rising, single point].
For O=C(CSc1ccc(-c2ccc(F)cc2)nn1)N1CCCCC1, the activity change, negative = inhibition was inconclusive: 12.1%.
With O=c1[nH]c(CN2CCN(Cc3ccc4c(c3)OCO4)CC2)nc2ccccc12 the activity change, negative = inhibition was “inactive”.
In the case of CCC1(CC)Nc2ccccc2C(=O)N1c1ccc(NC(C)=O)cc1, the activity change, negative = inhibition is reported as “inactive”.
With CC(=O)N1CC=CC1(CC(C)C)C(=O)O (stereo not drawn) the activity change, negative = inhibition was “inactive”.
With O=C(Nc1ccc2c(c1)OCO2)C1CCN(Cc2cnn(-c3ccccc3)c2-n2cccc2)CC1 the Potency was inconclusive: 20 µM [falling, partial curve, poor fit].
In the case of COc1ccc(OCC(=O)N(C)Cc2ccccc2)cc1, the activity change, negative = inhibition is reported as “inactive”.
With CN(C)CCCc1c2ccccc2nc2ccc(Cl)cc12 the activity change, negative = inhibition was inconclusive: 27.2% [at 7.6 µM].
For Cc1ccc(C(=O)CSc2nc3ccccc3c(=O)n2N)o1, the activity change, negative = inhibition was inconclusive: 20.2%.
In the case of COc1ncc2nc(C)c(=O)n(C[C@H]3CCCO3)c2n1, the Potency is reported as inconclusive: 15.8 µM [rising, single point].
In the case of CCC(=O)n1nc(-c2cccnc2)nc1NCc1ccc(OC)cc1, the activity change, negative = inhibition is reported as inconclusive: 12.9%.
In the case of Cc1c(OC(=O)CNC(=O)OC(C)(C)C)ccc2c3c(c(=O)oc12)CCC3, the Potency is reported as inconclusive: 15.8 µM [rising, single point].
In the case of Cc1cc2c(c(C)nn2-c2ccccc2)c(=O)o1, the Potency is reported as active: 10 µM.
For COCCn1c(=O)c(-c2ccc(Cl)cc2)nc2cnc(N3CCNCC3)nc21, the Potency was inconclusive: 0.398 µM [rising, full curve].
For CCOC(=O)C(C)Sc1nc2c(c(=O)[nH]c(=O)n2C)n1CCc1ccccc1 (stereo not drawn), the activity change, negative = inhibition was “inactive”.
In the case of COc1ccc(S(=O)(=O)N(CCCN2CCCC2=O)Cc2cc3cc(C)c(C)cc3[nH]c2=O)cc1, the Potency is reported as inconclusive: 10 µM [rising, partial curve].
For Clc1ccc(-n2ncc3c(NCc4ccc5c(c4)OCO5)ncnc32)cc1, the Potency was inconclusive: 12.6 µM [rising, partial curve].
For c1csc(CSc2nc3ccccc3s2)c1, the activity change, negative = inhibition was “inactive”.
For COc1cc(OC)c(C(=O)Nc2ccc(S(=O)(=O)Nc3ncccn3)cc2)cc1OC, the Potency was inconclusive: 20 µM [rising, single point].
With O=C(Nc1ccc2c(c1)OCO2)C1CCN(C(=O)CSc2ncnc3ccccc23)CC1 the Potency was inconclusive: 3.16 µM [falling, single point].
For C=C(C)C(N)=O, the activity change, negative = inhibition was “inactive”.
In the case of N#CCSc1nc2cc(C(=O)N3CCCC3)ccc2c(=O)n1Cc1ccccc1, the Potency is reported as inconclusive: 0.501 µM [rising, full curve].
With CC1CC(C)CN(C(=O)COC(=O)c2cc3ccccc3cc2O)C1 (stereo not drawn) the activity change, negative = inhibition was “inactive”.
With COC(=O)c1cc2c(C)nn(-c3ccccc3)c2s1 the Potency was inconclusive: 12.6 µM [rising, partial curve].
In the case of O=C(CCS(=O)(=O)Cc1ccccc1)Nc1nc2c(s1)CCCC2, the Potency is reported as inconclusive: 25.1 µM [rising, single point].
For CC1=CC(C)(C)Nc2ccc(OC(=O)c3ccco3)cc21, the Potency was inconclusive: 25.1 µM [rising, single point].
With CCOC(=O)c1sc(C)nc1C1CCN(C(=O)OCC)CC1 the activity change, negative = inhibition was inconclusive: 4.72%.
In the case of NC(=O)Cc1c[nH]c2cccc(O)c12, the activity change, negative = inhibition is reported as “inactive”.
In the case of CCOc1cc2[nH]c(=O)n(CCC(=O)NCCc3ccc(OC)c(OC)c3)c(=O)c2cc1OCC, the activity change, negative = inhibition is reported as “inactive”.
With O=C(NCC(c1cccnc1)N1CCN(c2ccc(F)cc2)CC1)c1ccccc1 (stereo not drawn) the activity change, negative = inhibition was inconclusive: -11.2%.
For CC1CN(S(=O)(=O)c2cccc(-c3cn4ccccc4n3)c2)CC(C)O1 (stereo not drawn), the Potency was inconclusive: 12.6 µM [rising, single point].
For c1ccc(CNc2ccc3c(c2)ncn3C2CCCCC2)nc1, the Potency was inconclusive: 25.1 µM [rising, single point].
In the case of NC(=O)c1c(NC(=O)COC(=O)CSc2nnc(-c3ccc(Cl)cc3)o2)sc2c1CCC2, the activity change, negative = inhibition is reported as inconclusive: 11.9%.
For O=C(c1ccc(N2CCCC2=O)cc1)N1CCCCCC1, the activity change, negative = inhibition was inconclusive: -5.75%.
